Source: PubChem BioAssay AID1745853 (National Center for Advancing Translational Sciences (NCATS), 2022)
The other results are listed elsewhere or left out. These are further read-outs of the screen, such as a control signal, another cell line or another target. No call is given for them.

Columns and labels:
Assay in all cases: Primary Screen for Target Class Profiling of Small Molecule Inhibitors of Methyltransferases
[1] = target: Glycine N-methyltransferase (Homo sapiens) (UniProt Q14749); conditions: purified enzyme, MTase-Glo SAH luminescence; measured here: GNMT inhibition; at 40 µM; stronger effect = lower value
In short: (§1)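 Each enzyme was assayed with SAM and its substrate. SAH formation detected by MTase-Glo luminescence; single-point 40 uM screen[…].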

[2] = target: Guanidinoacetate N-methyltransferase (Homo sapiens) (UniProt Q14353); conditions: purified enzyme, MTase-Glo SAH luminescence; measured here: GAMT inhibition; at 40 µM; stronger effect = lower value
In short: as §1

[3] = target: Histamine N-methyltransferase (Homo sapiens) (UniProt P50135); conditions: purified enzyme, MTase-Glo SAH luminescence; measured here: HNMT inhibition; at 40 µM; stronger effect = lower value
In short: as §1

[4] = target: Nicotinamide N-methyltransferase (Homo sapiens) (UniProt P40261); conditions: purified enzyme, MTase-Glo SAH luminescence; measured here: NNMT inhibition; at 40 µM; stronger effect = lower value
In short: as §1

[5] = target: Phenylethanolamine N-methyltransferase (Homo sapiens) (UniProt P11086); conditions: purified enzyme, MTase-Glo SAH luminescence; measured here: PNMT inhibition; at 40 µM; stronger effect = lower value
In short: as §1
On the % scale 0 is the no-effect control and ±100 the full control effect.

| SMILES | activity change, negative = inhibition [1] | activity change, negative = inhibition [2] | activity change, negative = inhibition [3] | activity change, negative = inhibition [4] | activity change, negative = inhibition [5] |
| --- | --- | --- | --- | --- | --- |
| CCC(C)NC(=O)c1ccc2c(=O)n(C)c3nnc(SCC(=O)Nc4ccc(C)c(F)c4)n3c2c1 (configuration not stated) | 3.28% | 0% | 4.29% | -2.55% | 1.89% |
| CC1CCCC(C)N1CCCN1C(=O)c2cc3occc3n2CC1(C)C(=O)NC1CCCCCCC1 (configuration not stated) | -1.32% | 3.52% | -5.76% | -2.92% | -3.48% |
| CCC(C)NC(=O)c1ccc2c(=O)n(C)c3nn(CC(=O)Nc4ccc(F)cc4)c(=O)n3c2c1 (configuration not stated) | 5.3% | 1.23% | 6.62% | -1.46% | 6.65% |
| CCOc1ccccc1NS(=O)(=O)c1cc2[nH]c(=O)[nH]c2cc1Cl | -11.9% | 0% | -12.7% | -16.8% | -22.8% |
| CCc1ccccc1S(=O)(=O)NCCn1c(CCc2ccccc2)nc2ccccc21 | -3.85% | 4.44% | -3.52% | -6.43% | -1.72% |
| O=C(NCCc1ccccn1)C1CCCN(c2nc(-c3ccccc3)nc3c2CCC3)C1 (configuration not stated) | -12.6% | -9.62% | -7.76% | -28.1% | -10.7% |
| CC(C)NC(=O)NC[C@H]1OC[C@@H](NC2CCCC2)[C@@H]1O | -0.07% | -0.604% | 2.35% | 0.212% | -2.15% |
| CCc1cccc(C)c1NS(=O)(=O)c1ccc2c(c1)n(C)c(=O)n2C | 8.26% | 0% | 6.01% | -10.2% | 1.61% |
| CC(=O)Oc1cc2c(s1)CCN(C(C(=O)C1CC1)c1ccccc1F)C2 (configuration not stated) |  | 2.8% |  | -13.5% | -2.32% |
| CS(=O)(=O)N(Cc1ccco1)CC(O)Cn1c2ccccc2c2ccccc21 (configuration not stated) | 2.24% | 7.18% | 10.6% | -9.53% | 3.97% |
| CC(C)C1NC(=O)C(CC2(O)c3ccccc3N3C(=O)C(Cc4ccccc4)NC32)NC1=O (configuration not stated) | 4.42% | 7.14% | 11.2% | -6.86% | 4.36% |
| CC(C)NC(=O)c1ccc(C#Cc2ccncc2)cn1 | -7.44% | 0.251% | 7.03% | -14.7% | 0.84% |
| O=C(CN1CC2CC(C1)[C@H]1CCCC(=O)N1C2)N1CCSCC1 (some centres not stated) | -3.05% | -5.74% | -0.784% | -6.8% | -3.98% |
| CC(C(=O)N1CCN(c2ccccc2)CC1)n1ccc2cc(S(=O)(=O)N3CCCC3)ccc21 (configuration not stated) | 7.31% | 0.541% | 4.02% | 7.36% | 2.87% |
| O=C1Nc2ccccc2/C1=C/c1cc(O)ccc1O |  | -14.1% |  | -35% | -5.9% |
| CCCC(=O)N(c1ccc(OC)cc1)S(=O)(=O)c1ccc2c(c1)n(C)c(=O)n2C | -3.72% | 3.4% | -0.711% | -0.387% | -0.142% |
| CC(C)CCn1c(=O)c2ccc(C(=O)NC(C)C)cc2n2c(=O)n(CC(=O)c3ccc(Cl)cc3)nc12 | 3.74% | 10.7% | 3.47% | -5.79% | 3.15% |
| COc1cc(OC)c(NC(=O)Cn2c(=O)oc3cc(S(=O)(=O)N4CCCC4)ccc32)cc1Cl | 15.9% | 2.02% | 13.9% | 9.05% | 7.83% |
| CC(=O)N1CCC(N2CCOC[C@H]2c2ncc(-c3ccncc3)[nH]2)CC1 | -5.8% | -8.55% | -2.41% | -5.48% | -9.1% |

| SMILES | activity change, negative = inhibition [1] | activity change, negative = inhibition [2] | activity change, negative = inhibition [3] | activity change, negative = inhibition [4] | activity change, negative = inhibition [5] |
| --- | --- | --- | --- | --- | --- |
| CC(C)C(=O)Nc1ccc([N+](=O)[O-])c(C(F)(F)F)c1 | -9.02% | 4.59% | -0.294% | -8.19% | -8.9% |
| CC1CC(=O)[C@]2(O)C(C(=O)OCCc3ccc(O)c(O)c3)=CO[C@@H](O[C@@H]3O[C@H](CO)[C@@H](O)[C@H](O)[C@H]3O)[C@H]12 (some centres not stated) | 0% | -0.794% | 5.28% | -12.8% | 4.68% |
| CCc1cc2c(cc3n2CC(C)(C(=O)NC2CCCCCC2)N(CCCc2ccccc2)C3=O)s1 (configuration not stated) | 4.89% | 6.98% | 8.71% | 7.33% | -0.161% |
| Cc1cc(C[C@@H]2COC[C@@H]2NC(=O)C2CCN(C(=O)C3CC3)CC2)on1 | -6.92% | -8.55% | -3.05% | -11.8% | 4.08% |
| C=CC(C)(C)C12CC3C(=O)N4C(CC5(C(C)(C)C=C)c6ccccc6NC45)C(=O)N3C1Nc1ccccc12 (configuration not stated) | 5.09% | -13.5% | 7.01% | -31.6% | -5.63% |
| C=C[C@H]1[C@H](O[C@@H]2O[C@H](CO[C@@H]3OC[C@](O)(CO)[C@H]3O)[C@@H](O)[C@H](O)[C@H]2O)OC=C2C(=O)OCC[C@H]21 | 3.93% | -2% | 6.07% | -15.2% | 6.36% |
| CCOc1cc2c(cn1)NCCN(Cc1ccncc1Cl)C2 | -7.88% | 4.74% | -9.34% | -3.78% | -9.66% |
| CC1(C(=O)NCc2ccc(Cl)cc2)Cn2c(ccc2-c2ccco2)C(=O)N1Cc1ccc2c(c1)OCO2 (configuration not stated) | -2.65% | 0% | 1.17% | -4.27% | -2.98% |
| CCOc1ccc(CCN2C(=O)c3cc4ccccc4n3CC2(C)C(=O)NCCCOC(C)C)cc1 (configuration not stated) | 5.29% | 2.34% | 7.51% | 2.29% | 2.94% |
| OC[C@@H]1CN(Cc2ccc(F)cc2)C[C@H]1c1nc(-c2ccncc2)no1 | -5.42% | -6.35% | -3.05% | -9.33% | -2.13% |
| Cc1cc(-c2ccc(/C=C3\SC(=Nc4ccc(Cl)c(C(=O)O)c4)NC3=O)o2)c([N+](=O)[O-])cc1C |  | -30.2% |  | -42.5% | -38.2% |
| Cc1nn(CC(=O)NC2CCCCC2)c(=O)c2nc(C(C)C)sc12 | -5.21% | -10.7% | -0.673% | -2.98% | -2.89% |
| CC(C)C1CCC(C(=O)N[C@H](Cc2ccccc2)C(=O)O)CC1 (some centres not stated) |  | -5.73% |  | -28.9% | -1.98% |
| COc1ccc(CCC(=O)N2CCOCCNC(=O)CC2)cc1 | -5.11% | -4.75% | -0.564% | -7.72% | -6.27% |
| CCCn1c(=O)c2sccc2n2c(CCC(=O)NCc3ccncc3)nnc12 | 3.15% | 0% | 10.1% | 11.4% | 3.69% |
| CC(=O)Nc1c2n(c3ccc(F)cc13)CC(C)(C(=O)NC1CCCC1)N(CCc1ccccc1)C2=O (configuration not stated) | 6.32% | 0% | 1.49% | 7.83% | -1.86% |
| CC(C)=CC/C=C(/C)[C@H]1CC[C@]2(C)[C@@H]1[C@H](O)CC1[C@@]3(C)CC[C@H](O)C(C)(C)[C@@H]3[C@@H](O[C@@H]3O[C@H](CO)[C@@H](O)[C@H](O)[C@H]3O[C@@H]3O[C@@H](C)[C@H](O)[C@@H](O)[C@H]3O)C[C@]12C (some centres not stated) | 0% | 19.8% | 10.2% | 5.6% | 9.7% |
| O=C(c1cc(-n2cccn2)ccc1Cl)N1CCn2nc(CO)cc2C1 | -3.94% | -3.54% | 0.899% | -7.13% | -16.5% |
